From patent US20030144336A1, “Method of selecting nonsedating H1-antagonists” (priority 2001, published 2003)
Like-named read-outs stand apart in the source and are kept apart here.

Legend:
[1] = biological target: T1, MDR1 (P-gp) (Homo sapiens, UniProt P08183)
[2] = in vivo; details: male, mouse, iv, 5 mg/kg
[3] = biological target: T1, MDR1 (P-gp); test: in vitro; details: dog, MDCK-MDR1

MDR1 Substrate? ([1]; MDCK-MDR1) | MDR1 Substrate? ([1]; human, MDCK-MDR1, 5 h, 2 µM) | Vd ([2]; FVB and mdr1a/1b KO, in vivo) [L/kg] | clearance ([2]; FVB and mdr1a/1b KO, in vivo) [mL/min/kg] | Vd ([2]; FVB, in vivo) [L/kg] | clearance ([2]; FVB, in vivo) [mL/min/kg] | Vd ([2]; mdr1a/1b KO, in vivo) [L/kg] | clearance ([2]; mdr1a/1b KO, in vivo) [mL/min/kg] | Papp A→B at 5 hr, 2 μM [3] [×10⁻⁶ cm/s] | Papp B→A at 5 hr, 2 μM [3] [×10⁻⁶ cm/s] | Vd ([2]; FVB and mdr1a/1b KO, plasma) [L/kg] | clearance ([2]; FVB and mdr1a/1b KO, plasma) [mL/min/kg] | Vd ([2]; FVB, plasma) [L/kg] | clearance ([2]; FVB, plasma) [mL/min/kg] | Vd ([2]; mdr1a/1b KO, plasma) [L/kg] | clearance ([2]; mdr1a/1b KO, plasma) [mL/min/kg] | Compound
Yes | MDR1-mediated transport | 1 | 5.4 to 7.5 | 0.9 | 7.5 | 1.1 | 5.4 | 2.6 | 15.2 | – | – | – | – | – | – | O=C(O)COCCN1CCN(C(c2ccccc2)c2ccc(Cl)cc2)CC1 (centres unmarked) [Cetirizine]
No | not MDR1 substrates | 1.3 to 1.6 | 62 to 66 | 1.3 | 66 | 1.6 | 62 | 24.8 | 21 | – | – | – | – | – | – | CN(C)CCOC(c1ccccc1)c1ccccc1 [Diphenhydramine]
– | – | – | – | – | – | – | – | – | – | ~2 | 83 to 99 | 2.2 | 99 | 2.1 | 83 | CCOC(=O)N1CCC(=C2c3ccc(Cl)cc3CCc3cccnc32)CC1 [Loratadine]
